The test system of the test is NCI-H322M lung. As to the kind of experiment: DTP human tumour cell line panel, 48 h.

Molecules are shown by their SMILES.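 Interpolation was linear, between the two tested concentrations surrounding the appropriate level; five concentrations were tested over 48 hours in 96-well plates. The concentration for 50% growth inhibition is given as GI50. TGI is the concentration that stops growth completely.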

For `CCNC(=O)Oc1ccc(/C(=C(/C)c2ccc(Cl)cc2)c2ccc(OCCN3CCCCCC3)cc2)cc1`, the GI50 is 2.28 µM and the TGI is 5.75 µM.

Usually GI50 stands for the concentration at which growth is held to half of that of the control. By TGI is commonly meant the concentration giving total growth inhibition.
